Measured values: PMC6919601, “Identification of Plasmodium dipeptidyl aminopeptidase allosteric inhibitors by high throughput screening” (PLoS ONE, 2019)
Several values for one entry are separate records, joined by “and”; a condition that tells them apart may be missing. Identical values can stand only once. The whole screen tested about 110,000 compounds, of which about 230 (0.21%) showed an effect of 50% or more. The list shows a part of the results.

The compounds below were run against DPAP1 (Plasmodium falciparum, UniProt Q8IIJ9) (assay: primary screen, percent inhibition; read by cleavage of a fluorogenic dipeptide substrate; higher = more effect of the substance).
Set-up: species or system P. falciparum D10 trophozoite lysates; single well
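Further: 30 min substrate incubation versus DMSO and 10 µM JCP410 controls.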

Chain of DPAP1 (Q8IIJ9 whole entry, looked up): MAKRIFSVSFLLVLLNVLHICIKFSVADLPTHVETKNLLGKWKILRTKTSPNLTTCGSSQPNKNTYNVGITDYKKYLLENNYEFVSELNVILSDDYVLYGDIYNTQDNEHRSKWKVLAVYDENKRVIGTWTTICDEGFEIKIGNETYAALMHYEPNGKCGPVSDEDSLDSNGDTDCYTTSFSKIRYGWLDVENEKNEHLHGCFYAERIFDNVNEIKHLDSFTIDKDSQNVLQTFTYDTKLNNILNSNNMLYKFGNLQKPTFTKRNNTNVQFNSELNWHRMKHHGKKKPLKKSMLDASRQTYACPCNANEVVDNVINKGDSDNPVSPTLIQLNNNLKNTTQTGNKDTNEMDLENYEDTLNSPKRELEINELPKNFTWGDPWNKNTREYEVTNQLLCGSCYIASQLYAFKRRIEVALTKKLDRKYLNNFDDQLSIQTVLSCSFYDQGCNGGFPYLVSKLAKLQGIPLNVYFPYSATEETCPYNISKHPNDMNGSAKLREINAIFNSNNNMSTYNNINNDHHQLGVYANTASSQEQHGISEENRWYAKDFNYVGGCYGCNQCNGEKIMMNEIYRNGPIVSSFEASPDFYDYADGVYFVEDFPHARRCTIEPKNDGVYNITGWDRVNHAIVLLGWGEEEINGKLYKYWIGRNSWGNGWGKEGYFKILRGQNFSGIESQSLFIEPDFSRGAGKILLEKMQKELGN

Compound	% Inhibition @ 10 uM
O=C(Nc1cccc2ccccc12)C1CC1c1ccccc1 (centres unmarked)	-4.61%
CC(=O)Nc1ccc(S(=O)(=O)C(CC(=O)c2ccccc2)c2ccc(N(C)C)cc2)cc1 (centres unmarked)	-2.46%
c1ccc(Sc2c(-c3ccccc3)nc3sccn23)cc1	4.35%
O=c1cc(N2CCCC2)c2ccccc2o1	0.0719%
COc1cc(SC)ccc1C(=O)Nc1ccc(S(=O)(=O)N2CCC(C)CC2)cc1	0.562%
N#CC1=C(SCC(=O)N2CCOCC2)NC(=O)CC1c1ccccc1F (centres unmarked)	6.08%
CCC(=N)c1ccc(OC)c2cccc(NC)c12	10.9%
O=C(NCCc1nc2ccccc2[nH]1)c1cc2ccccc2o1	-4.13%
CN(C)CCn1cnc2c1c(=O)n(C)c(=O)n2C	-1.81%
c1ccc(CCN2CCC(NCC3CCCCC3)CC2)cc1	0.217%
O=C(CCN1C(=O)c2ccccc2C1=O)NCCC1=CCCCC1	-3.51%
CC(C)=CCC/C(C)=C/CN1CCN(c2ccccc2)CC1	-0.603%
Cc1nnc(N2CCC(C(=O)NC3CCCc4ccccc43)CC2)c2nn(-c3ccccc3)c(C)c12 (centres unmarked)	-6.13%
CC(=O)c1cccc(N2C(=O)c3ccc(Cl)cc3C2=O)c1	-3.69%
COc1ccc(OC)c(C2C(C#N)=C(C)N=C3CCCC(O)=C32)c1 (centres unmarked)	-1.2%
COc1ccc(C(=O)Nc2cc(Cl)c(NC(=O)c3ccccc3)cc2OC)cc1	1.15%
CCOC(=O)C(C#N)=C1SC2CS(=O)(=O)CC2S1 (centres unmarked)	-3.98%
COc1ccc(C2CC(C(F)(F)F)n3ncc(C(=O)Nc4cc(Cl)ccc4O)c3N2)cc1OC (centres unmarked)	-4.39%
O=C(Nc1cccc(Cl)c1)c1ccccc1NC(=O)C1CC=CCC1C(=O)O (centres unmarked)	-0.872%
CCc1ccc(C2N3CC4(C)CN2CC(C)(C3)C4O)cc1 (centres unmarked)	-1.71%
COc1cc(C2=NOC(C(=O)NCC3CCCO3)C2)cc(OC)c1OC (centres unmarked)	1.24%
O=C(CC1(O)C(=O)Nc2ccc(Br)cc21)c1ccc2ccccc2c1 (centres unmarked)	4.03%
O=C(O)/C=C/C(=O)N1CC=C(c2ccccc2)CC1	5.52%
O=C(c1cc(-c2ccc(Cl)cc2)nc2ccccc12)N1CCOCC1	-3.18%
COc1ccc(S(=O)(=O)Nc2ccc(Cl)cn2)c(C)c1C	-4.86%

Compound	% Inhibition @ 10 uM
C=CCNc1nc(N)c(C(=O)c2ccc(OC)cc2)s1	-0.0678%
COc1ccc(N(CC(=O)NCc2ccco2)S(=O)(=O)c2ccccc2)cc1Cl	2.09%
CCSc1nc(O)c2c(n1)N=C1CC(C)(C)CC(O)=C1C2c1ccc(OC)c(OC)c1 (centres unmarked)	-2.56%
N#CC1C(=O)NC(=O)C([n+]2ccccc2)C1c1ccc(O)cc1 (centres unmarked)	5.35%
CC(=O)c1ccc(-n2c(CCC(=O)O)ccc2-c2ccccc2)cc1	6.85%
CCOCCc1nnc(NC(=O)/C=C/c2ccccc2)s1	3.25%
Cc1ccc(NC(=O)c2ccc([N+](=O)[O-])cc2)c(Br)c1	-6.68%
O=S(=O)(c1ccc(OC(F)(F)F)cc1)N1CCC(O)(c2cccc(C(F)(F)F)c2)CC1	-1.07%
COc1ccc(N2C(=O)CC(NCc3ccc(F)cc3)C2=O)cc1 (centres unmarked)	-1.88%
O=C1OC(/C=C/c2ccccc2)=NC/1=C/c1ccc2c(c1)OCO2	-0.945%
CC(Cc1ccccc1Sc1ccc(O)cc1)N(C)C (centres unmarked)	-6.02%
O=C1OC(c2cccc(Cl)c2Cl)=N/C1=C/c1ccco1	-0.77%
O=C(NCc1ccccc1Cl)c1nnc(Cc2ccc(F)cc2Cl)o1	3.5%
CN(Cc1ccccc1)C(=O)C1CCN(C(=O)c2cnn(-c3ccccc3)c2-n2cccc2)CC1	-3.35%
Cc1cc(-c2ccco2)n(-c2ccccc2)n1	1.33%
CC(=O)NC12CC3(C)CC(C)(C1)CC(NC(C)=O)(C3)C2	-0.636%
O=C(COc1ccccc1)Nc1ccccc1-n1cccc1	-1.98%
O=C(C1CCN(S(=O)(=O)c2c[nH]cn2)CC1)N1CC=C(c2ccccc2)CC1	2.9%
O=C(CCCN1C(=O)C(c2ccccc2)Oc2cccnc21)NCc1ccc(F)cc1 (centres unmarked)	-1.53%
CC(NC(=O)c1ccc(CSCc2ccccc2F)o1)c1ccccc1 (centres unmarked)	0.718%
CCn1cc(CN(C)C(=O)c2cnn3c(C(F)F)cc(-c4ccccc4)nc23)c(C)n1	1.51%
Cc1ccccc1OCCCCCN1CCCC1	2.25%
CCNC(=O)/C(C#N)=C/c1c(Oc2ccc(OC)cc2)nc2ccccn2c1=O	0.189%
Cc1cc(NCCc2ccccc2)cc(=O)n1CCc1ccccc1	-1.61%
Cc1cccc(C)c1NC(=O)c1c(Br)c(C)nn1C	0.686% and 3.65%
